The campaign covered roughly 310,000 compounds. About 2,200 (0.71%) showed an effect of 50% or more. Effects have a minus sign here. The list shows a part of the results.

For this assay, the target named is human ether-à-go-go-related gene (hERG) potassium channel (human, UniProt Q12809). The assay is described as follows: primary screen, population patch clamp on CHO cells stably expressing hERG.
human ether-à-go-go-related gene (hERG) potassium channel, sequence (Q12809 whole entry, looked up): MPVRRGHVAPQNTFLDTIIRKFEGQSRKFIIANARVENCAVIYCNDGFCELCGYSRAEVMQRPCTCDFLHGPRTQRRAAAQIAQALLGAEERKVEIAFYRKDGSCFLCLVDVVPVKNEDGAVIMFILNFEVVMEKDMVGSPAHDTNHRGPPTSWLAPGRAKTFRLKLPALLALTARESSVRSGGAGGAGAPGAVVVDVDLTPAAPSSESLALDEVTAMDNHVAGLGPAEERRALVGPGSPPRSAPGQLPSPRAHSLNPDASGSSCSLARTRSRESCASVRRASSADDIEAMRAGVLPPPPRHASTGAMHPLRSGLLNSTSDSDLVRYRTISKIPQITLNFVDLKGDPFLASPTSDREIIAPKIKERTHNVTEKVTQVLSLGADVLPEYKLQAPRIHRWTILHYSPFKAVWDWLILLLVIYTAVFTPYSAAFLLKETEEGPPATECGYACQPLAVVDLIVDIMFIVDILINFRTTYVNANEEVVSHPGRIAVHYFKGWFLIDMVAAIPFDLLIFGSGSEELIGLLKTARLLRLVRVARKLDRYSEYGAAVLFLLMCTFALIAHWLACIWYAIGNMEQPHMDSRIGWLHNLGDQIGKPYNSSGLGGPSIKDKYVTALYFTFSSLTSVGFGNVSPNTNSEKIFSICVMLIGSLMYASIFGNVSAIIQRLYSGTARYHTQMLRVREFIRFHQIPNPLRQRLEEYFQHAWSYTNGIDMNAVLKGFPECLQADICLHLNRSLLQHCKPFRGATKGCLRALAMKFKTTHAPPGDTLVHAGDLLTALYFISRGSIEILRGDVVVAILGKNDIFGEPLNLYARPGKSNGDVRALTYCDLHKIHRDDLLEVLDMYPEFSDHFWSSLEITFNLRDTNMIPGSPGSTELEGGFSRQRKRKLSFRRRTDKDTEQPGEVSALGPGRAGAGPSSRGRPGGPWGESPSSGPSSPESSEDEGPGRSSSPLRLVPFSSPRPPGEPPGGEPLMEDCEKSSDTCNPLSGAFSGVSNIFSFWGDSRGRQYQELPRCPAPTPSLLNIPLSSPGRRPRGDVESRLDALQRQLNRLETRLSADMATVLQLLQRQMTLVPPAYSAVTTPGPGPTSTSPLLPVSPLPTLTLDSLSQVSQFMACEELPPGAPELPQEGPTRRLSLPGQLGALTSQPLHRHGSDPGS
In the case of `COC(=O)c1ccc2c(=O)n(CCCN3CCOCC3)c(=S)[nH]c2c1`, the “hERG current change (%, negative = inhibition) at 1uM” value is listed as -5.6%.
With `COc1ccc2c(C)cc(SCC(=O)Nc3cccnc3Cl)nc2c1` the figure was 13.7%; with `O=C(NCc1ccccc1)C(c1cccnc1)N(C(=O)c1csnn1)c1ccc(F)cc1` (centres unmarked), 3.26%.
With `O=C(Nc1ccc(Cl)c(C(F)(F)F)c1)NC1CC2CCCC(C1)N2Cc1ccccc1` (centres unmarked) the figure was -8.92%.
Then `COc1ccc(NS(=O)(=O)c2cccc3nsnc23)cc1Cl`, with 17.2%; and `CN(C(=O)COC(=O)C1COc2ccccc2O1)c1c(N)n(Cc2ccccc2)c(=O)[nH]c1=O` (centres unmarked), with 6.48%.
Turning to `O=c1c2ccccc2[nH]c2ccc(F)cc12`, the “hERG current change (%, negative = inhibition) at 1uM” value is listed as 14.2%.
With `Clc1cccc(Nc2ncnc3ccc(Br)cc23)c1` the figure was 3.03%; with `COc1cc(C(=O)N2CCN(C)C(C)C2)ccc1OC1CCN(C(C)=O)CC1` (centres unmarked), 7.33%.
Consider `COc1ccccc1NC(=O)c1nnn(Cc2ccccc2)c1NC(C)=O`, for which the “hERG current change (%, negative = inhibition) at 1uM” value was 7.48%.
Turning to `O=c1c2ccccc2oc2nc(C3CCCCC3)n(Cc3ccco3)c(=O)c12`, the “hERG current change (%, negative = inhibition) at 1uM” value was -0.854%.
With `Cc1cc(C)c[n+](C[n+]2cc(C)cc(C)c2)c1.[Br-]` the figure was 8.02%; with `COc1ccc2nc(NC(=O)c3ccc(-c4cccc([N+](=O)[O-])c4)o3)sc2c1`, 17.7%; with `CN(C(=S)Nc1ccccc1)c1ccccc1`, 4.13%.
Then `COc1ccccc1NC(=O)c1cccc(N2C(=O)C3C4C=CC(C4)C3C2=O)c1` (centres unmarked), with 7.13%.
With `CCN1CCc2c(sc(NC(=O)c3ccc(S(=O)(=O)N4CCOCC4)cc3)c2C(=O)OC)C1.Cl` the figure was -4.77%; with `O=C(c1ccccc1[N+](=O)[O-])N1CCCN(C(=O)c2ccccc2[N+](=O)[O-])CC1`, -6.88%.
Regarding `O=C(Nc1ccnn1C1CCN(C2CCC2)CC1)c1ccccc1Cl`, the “hERG current change (%, negative = inhibition) at 1uM” value is listed as -28.4%.
Then `COC(=O)c1ccc(C(=O)OC)c(NC(=O)COC(=O)C2CC2C)c1` (centres unmarked), with 8.92%; and `COc1cccc(-n2nnnc2SCC(=O)Nc2cccc(C)n2)c1`, with 9.94%; and `O=C(N/N=C/c1cccc(O)c1)c1cc(-c2ccc3c(c2)OCO3)n[nH]1`, with 13.8%.
Then `COc1ccc(-n2nnnc2-c2nc3ccccc3s2)cc1`, with -12.8%; and `O=C(Nc1ccc(O)c(-c2nc3ccccc3o2)c1)C1(c2ccc(Cl)cc2)CCCC1`, with 6.46%.

The values above are taken from PMC4336329 (PLoS ONE, 2015).
